# According to ChEMBL document CHEMBL1201862, “PubChem BioAssay data set” (2004):
# System: NCI-H322M
# Assay: NCI tumour cell line growth inhibition, 48 h
row,SMILES,GI50
1,CC(C)C[C@H](NC(=O)[C@H](Cc1cccc2ccccc12)NC(=O)N1CCOCC1)B(O)O,active: < 0.0206 µM
2,COP(=O)(Cc1ccc(/C=C/C#N)o1)OC,inactive: > 100 µM
3,CC1=C(C(=O)CC(=O)C(=O)Nc2ccc(C)c(C)c2)Sc2ccccc2N1,inactive: > 100 µM
4,O=C1CCCCC/C1=C\c1ccccc1,inactive: > 100 µM
5,CC(CCC(=O)O)c1ccc(Br)cc1 (stereo unspecified),inactive: > 100 µM
6,O=P(O)(O)CC1OC(CO)C(O)C1O (stereo unspecified),inactive: > 100 µM
7,COc1ccc(/C(=C/n2ccnc2)C(=O)c2ccc(OC)c(OC)c2)cc1,inactive: > 100 µM
8,CCn1cc2c(=O)n3ncn(-c4ccc(Br)cc4)c3nc2n1,inactive: > 100 µM
9,N=c1nc(N)nc(N)n1-c1ccc(S(N)(=O)=O)cc1,inactive: > 100 µM
10,CC(C)c1cc2c(c(O)c1O)[C@@]1(C(=O)O)CCCC(C)(C)[C@@H]1CC2 [CARNOSIC ACID],inactive: 33.4 µM
11,CN(C)/N=C(/c1nc2ccc([N+](=O)[O-])cc2nc1O)C(O)c1ccco1 (stereo unspecified),inactive: > 100 µM
12,CC1NC(=O)C2Cc3ccc(O)c(c3)Oc3ccc(cc3)C(O)C(C(=O)N2C)N(C)C(=O)C(C)NC(=O)C(Cc2ccc(O)cc2)N(C)C(=O)C(C)NC1=O (stereo unspecified),inactive: > 100 µM
13,C[C@H]1C=C2C(=O)O[C@H]3CC[C@@H](C1)[C@@]23O,inactive: 4.45 µM
14,CCOC(=O)C1=CC(C)(C(=O)OCC)Nc2c(nc(SC)n(C)c2=O)N1 (stereo unspecified),inactive: > 10 µM
15,O=C(C[N+]12CN3CN(CN(C3)C1)C2)c1ccc(-c2ccccc2)cc1,inactive: 23.2 µM
16,Cc1cccc(NC(=O)CC(=O)N2N=C(N(CCC#N)c3ccc(Cl)cc3)CC2c2ccccc2)c1 (stereo unspecified),inactive: > 100 µM
17,NNc1nncc2[nH]nnc12,inactive: > 100 µM
18,CC(=O)NC(CCCCNCc1ccccc1)C(=O)NCc1ccccc1 (stereo unspecified),inactive: > 100 µM

row,SMILES,GI50
1,Cn1cc(NC(=O)Nc2cc(C(=O)Nc3cc(C(=O)Nc4ccc5cc(S(=O)(=O)O)cc(S(=O)(=O)O)c5c4)n(C)c3)n(C)c2)cc1C(=O)Nc1cc(C(=O)Nc2ccc3cc(S(=O)(=O)O)cc(S(=O)(=O)O)c3c2)n(C)c1,inactive: > 100 µM
2,c1ccc2c(c1)SCCCS2,inactive: > 100 µM
3,Cc1cccc2oc3c(CC(=O)O)cccc3c(=O)c12,inactive: > 100 µM
4,O=C(c1ccc(Cl)cc1)N(C(=S)N1CCN(c2ccccn2)CC1)c1ccccc1,inactive: > 100 µM
5,O=C(CCN1CCN(c2cccc(Cl)c2)CC1)N1CCc2c([nH]c3ccccc23)C1c1cccnc1 (stereo unspecified),inactive: 5.57 µM
6,CCCCCCC(/C=N/O)C(C)(O)CCC (stereo unspecified),inactive: > 100 µM
7,Cc1nc(-c2cc3c(ccc4ccccc43)oc2=O)cc2c1c(=O)oc1ccc3ccccc3c12,inactive: > 100 µM
8,CCOC(=O)N1c2ccccc2S(=O)(=O)c2ccccc21,inactive: > 100 µM
9,Cc1ccc(S(=O)(=O)OC(COC(=O)c2ccccc2)C(OS(=O)(=O)c2ccc(C)cc2)C(OS(=O)(=O)c2ccc(C)cc2)C(COC(=O)c2ccccc2)OS(=O)(=O)c2ccc(C)cc2)cc1 (stereo unspecified),inactive: > 100 µM
10,CN(C)c1ccc(/C=C(\NC(=O)c2ccccc2)C(=O)NC(CCC(=O)O)C(=O)O)cc1 (stereo unspecified),inactive: > 100 µM
11,N#CSc1[nH]cnc1C(N)=O,inactive: > 100 µM
12,O=C1C2=C(C3=NCCc4c[nH]c1c43)c1c(Br)cc(Br)cc1CCN2,inactive: 1.53 µM
13,COc1cc2c[n+]3ccc4cc(OC)c(OC)cc4c3cc2cc1O,inactive: > 100 µM
14,NC(N)=NCc1ccc2c(c1)OCO2,inactive: > 100 µM
15,N#CCSc1c(-c2ccccc2)c(=O)n(-c2ccccc2)c(=S)n1-c1ccccc1,inactive: > 100 µM
16,CC(=O)OCC1OC(n2c(-c3cccs3)c3c(c(C#N)c2=S)-c2ccccc2CC3)C(OC(C)=O)C(OC(C)=O)C1OC(C)=O (stereo unspecified),inactive: 25.2 µM
17,Brc1ccc(C2SCc3nc4ccccc4n32)cc1 (stereo unspecified),inactive: 16.4 µM
18,CSC(=N\c1ccccc1)/N=C(\SCc1ccccc1)N(C)C,inactive: 1.85 µM

#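 How tested: cells in 96-well plates exposed to compound for 48 hours at five concentrations. At the GI50, growth is halved.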 Active and inactive are the calls of the source. No stated cut-off is given here; in the data, active = GI50 up to about 1.1 µM and inactive = higher.
